Data taken from paper PMC5953544.
Results are given in words; binding and its absence hold for the method and conditions named. In cells and extracts the contact can be indirect. Some binding calls cover weakened binding; strength is not graded here. Where a sequence is shown, tags or fusion partners need not be part of it. One block for each binder: values may come before it.

Chains of the proteins cited; added tags and fusions are not shown.
UniProt Q62440: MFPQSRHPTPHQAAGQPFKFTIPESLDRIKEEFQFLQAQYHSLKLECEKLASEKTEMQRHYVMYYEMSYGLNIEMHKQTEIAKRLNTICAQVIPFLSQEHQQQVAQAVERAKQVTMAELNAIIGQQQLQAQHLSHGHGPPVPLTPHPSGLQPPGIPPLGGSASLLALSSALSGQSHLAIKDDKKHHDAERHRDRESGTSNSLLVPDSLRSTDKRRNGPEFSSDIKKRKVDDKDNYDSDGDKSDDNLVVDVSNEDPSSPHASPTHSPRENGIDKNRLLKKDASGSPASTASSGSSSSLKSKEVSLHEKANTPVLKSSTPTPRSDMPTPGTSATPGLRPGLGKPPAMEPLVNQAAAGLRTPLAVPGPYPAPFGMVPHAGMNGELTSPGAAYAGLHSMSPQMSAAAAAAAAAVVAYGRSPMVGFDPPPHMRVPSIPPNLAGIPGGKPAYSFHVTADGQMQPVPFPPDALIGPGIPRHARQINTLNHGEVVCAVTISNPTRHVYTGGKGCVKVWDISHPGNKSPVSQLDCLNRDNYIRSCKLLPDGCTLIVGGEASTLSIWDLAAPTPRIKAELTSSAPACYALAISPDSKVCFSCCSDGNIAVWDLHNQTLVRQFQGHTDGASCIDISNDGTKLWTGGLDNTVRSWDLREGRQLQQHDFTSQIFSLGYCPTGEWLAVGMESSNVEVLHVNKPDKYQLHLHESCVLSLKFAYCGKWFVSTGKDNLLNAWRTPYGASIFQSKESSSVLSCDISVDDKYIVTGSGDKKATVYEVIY
UniProt Q9WVB2: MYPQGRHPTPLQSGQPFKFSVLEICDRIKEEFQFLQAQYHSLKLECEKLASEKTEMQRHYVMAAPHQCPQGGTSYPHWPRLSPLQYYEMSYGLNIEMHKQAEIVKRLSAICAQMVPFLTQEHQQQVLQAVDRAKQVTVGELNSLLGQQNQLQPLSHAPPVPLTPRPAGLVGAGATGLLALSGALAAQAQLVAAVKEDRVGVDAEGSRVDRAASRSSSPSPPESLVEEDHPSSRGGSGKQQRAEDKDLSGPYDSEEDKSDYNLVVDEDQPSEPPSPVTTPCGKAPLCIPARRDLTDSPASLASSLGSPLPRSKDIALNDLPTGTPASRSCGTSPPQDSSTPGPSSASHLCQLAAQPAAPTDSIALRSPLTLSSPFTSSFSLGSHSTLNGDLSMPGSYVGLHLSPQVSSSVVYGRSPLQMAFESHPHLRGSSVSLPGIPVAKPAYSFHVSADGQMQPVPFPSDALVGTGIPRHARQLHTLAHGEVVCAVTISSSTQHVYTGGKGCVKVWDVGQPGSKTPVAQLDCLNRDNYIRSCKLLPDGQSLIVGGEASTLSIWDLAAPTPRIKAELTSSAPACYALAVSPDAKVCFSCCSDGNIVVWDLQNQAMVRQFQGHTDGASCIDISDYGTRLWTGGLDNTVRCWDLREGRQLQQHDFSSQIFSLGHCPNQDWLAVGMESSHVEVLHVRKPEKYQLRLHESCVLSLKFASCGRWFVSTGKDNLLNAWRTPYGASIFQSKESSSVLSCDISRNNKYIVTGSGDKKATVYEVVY

Tests used:
[1] = biological target: FLAG-TLE1 (mouse) (UniProt Q62440); assay: co-IP; HEK293T cells co-transfected with a FLAG-tagged and a Myc-tagged construct; lysis in 50 mM Tris-HCl pH 7.4, 150 mM NaCl, 1 mM EDTA, 0.5% NP-40, 1 mM DTT; anti-FLAG M2 affinity gel at 4°C; blots with anti-FLAG and anti-Myc
[2] = biological target: FLAG-TLE2 (UniProt Q9WVB2); assay: as above
[3] = biological target: T1, FLAG-Tbx6 (mouse) (UniProt P70327); assay: as above
T1 sequence: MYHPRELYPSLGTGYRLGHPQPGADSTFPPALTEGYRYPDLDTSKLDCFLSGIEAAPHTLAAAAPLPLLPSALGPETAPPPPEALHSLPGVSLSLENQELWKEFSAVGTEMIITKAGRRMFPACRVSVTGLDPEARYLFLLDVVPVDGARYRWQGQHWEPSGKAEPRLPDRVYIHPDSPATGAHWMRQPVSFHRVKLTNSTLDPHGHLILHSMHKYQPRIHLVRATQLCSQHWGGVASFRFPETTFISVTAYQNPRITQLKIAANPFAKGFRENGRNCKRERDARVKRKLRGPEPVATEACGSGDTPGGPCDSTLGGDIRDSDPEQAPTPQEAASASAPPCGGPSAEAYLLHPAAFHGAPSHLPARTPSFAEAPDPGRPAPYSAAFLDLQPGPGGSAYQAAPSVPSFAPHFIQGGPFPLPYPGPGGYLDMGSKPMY

[4] = biological target: T2, FLAG-Tbx6_(1~124aa) (mouse) (UniProt P70327); assay: as above
T2 sequence: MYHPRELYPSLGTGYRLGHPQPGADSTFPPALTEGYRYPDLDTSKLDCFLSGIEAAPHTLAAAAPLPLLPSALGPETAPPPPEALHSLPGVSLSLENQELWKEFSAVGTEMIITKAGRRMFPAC

[5] = biological target: T3, FLAG-Tbx6_(1~152aa) (mouse) (UniProt P70327); assay: as above
T3 sequence: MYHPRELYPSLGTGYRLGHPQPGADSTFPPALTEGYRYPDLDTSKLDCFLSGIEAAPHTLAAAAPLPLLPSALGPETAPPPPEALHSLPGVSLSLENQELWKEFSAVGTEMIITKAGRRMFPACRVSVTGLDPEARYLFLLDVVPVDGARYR

[6] = biological target: T4, GST-Tbx6 (mouse) (UniProt P70327); assay: pull-down; supernatant of sonicated E. coli with GST or GST-Tbx6 (or mutant) mixed with purified His-Ripply2 and glutathione-sepharose 4FF, 2 hr; 25 mM HEPES-KOH pH 7.4, 150 mM NaCl, 0.1% NP-40, 1 mM DTT, 1 mM EDTA; blot with anti-Ripply2 (and anti-His); only the binder purified
T4 sequence: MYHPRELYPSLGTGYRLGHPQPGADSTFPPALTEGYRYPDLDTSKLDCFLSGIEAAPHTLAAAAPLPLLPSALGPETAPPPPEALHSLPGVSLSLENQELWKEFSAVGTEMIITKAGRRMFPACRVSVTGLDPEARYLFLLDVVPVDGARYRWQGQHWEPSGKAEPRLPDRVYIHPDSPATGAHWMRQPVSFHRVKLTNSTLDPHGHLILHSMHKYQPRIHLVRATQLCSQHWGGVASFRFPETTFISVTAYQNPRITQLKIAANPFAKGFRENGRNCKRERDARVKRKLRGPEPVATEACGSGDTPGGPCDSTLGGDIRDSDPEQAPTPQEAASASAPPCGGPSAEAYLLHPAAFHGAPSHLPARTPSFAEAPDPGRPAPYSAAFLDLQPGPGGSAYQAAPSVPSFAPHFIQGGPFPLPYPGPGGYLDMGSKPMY

[7] = biological target: T5, FLAG-Ripply2 (mouse) (UniProt Q2WG76); assay: co-IP; lysates of Tbx6-venus knock-in mouse ES cells with Dox-induced FLAG-Ripply2 or its mutants, PSM-fated with CHIR99021 (for the proteasome blot also without differentiation induction); anti-FLAG beads; blots with anti-GFP, anti-FLAG, anti-proteasome 20S antibodies
T5 sequence: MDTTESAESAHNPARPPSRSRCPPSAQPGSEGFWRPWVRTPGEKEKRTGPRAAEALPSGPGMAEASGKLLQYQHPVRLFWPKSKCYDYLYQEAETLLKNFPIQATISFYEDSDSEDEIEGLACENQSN

- binding [1]: binds
- binding [2]: binds
- binding [3]: binds
- binding [4]: no binding
- binding [5]: binds
B1: Myc-Ripply2 (protein, UniProt Q2WG76 1-128)
chain: MDTTESAESAHNPARPPSRSRCPPSAQPGSEGFWRPWVRTPGEKEKRTGPRAAEALPSGPGMAEASGKLLQYQHPVRLFWPKSKCYDYLYQEAETLLKNFPIQATISFYEDSDSEDEIEGLACENQSN

- binding [6]: binds
B2: His-Ripply2 (protein, UniProt Q2WG76 1-128)
chain: MDTTESAESAHNPARPPSRSRCPPSAQPGSEGFWRPWVRTPGEKEKRTGPRAAEALPSGPGMAEASGKLLQYQHPVRLFWPKSKCYDYLYQEAETLLKNFPIQATISFYEDSDSEDEIEGLACENQSN

- binding [7]: binds
B3: Tbx6-venus (protein, UniProt P70327 1-436)
chain: MYHPRELYPSLGTGYRLGHPQPGADSTFPPALTEGYRYPDLDTSKLDCFLSGIEAAPHTLAAAAPLPLLPSALGPETAPPPPEALHSLPGVSLSLENQELWKEFSAVGTEMIITKAGRRMFPACRVSVTGLDPEARYLFLLDVVPVDGARYRWQGQHWEPSGKAEPRLPDRVYIHPDSPATGAHWMRQPVSFHRVKLTNSTLDPHGHLILHSMHKYQPRIHLVRATQLCSQHWGGVASFRFPETTFISVTAYQNPRITQLKIAANPFAKGFRENGRNCKRERDARVKRKLRGPEPVATEACGSGDTPGGPCDSTLGGDIRDSDPEQAPTPQEAASASAPPCGGPSAEAYLLHPAAFHGAPSHLPARTPSFAEAPDPGRPAPYSAAFLDLQPGPGGSAYQAAPSVPSFAPHFIQGGPFPLPYPGPGGYLDMGSKPMY
